According to the supplement of paper PMC9135407:
Values joined by “and” are separate entries in the source; they are usually repeats but may differ in a detail not shown here. Equal entries are not always repeated. Structures can show the parent of a compound that is named as a salt. About 620 (11%) of roughly 5,800 compounds showed activity.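 Rule for the calls: active = score above a cut-off or among the top three wells of a plate; in these data no inactive exceeds 0.85.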 The list shows a part of the results, in another mix than the full data.

System: primary human hepatic stellate cells (donor 1)
Experiment: scaled lipid accumulation score (0 = DMSO-like, 1 = nortriptyline-like); higher = stronger HSC inactivation (lipid re-accumulation), active = hit call of the paper
Settings: 48 h
[1] = library stock concentration: 3.33 mM
[2] = library stock concentration: 10 mM
[3] = library stock concentration: 2 mM

## O=C(O)CCCc1c[nH]c2ccccc12 [3-Indolebutyric acid (IBA)]
[1]
  scaled lipid accumulation score: inactive: 0.014
[2]
  scaled lipid accumulation score: inactive: ≤ 0

## O=C1c2ccccc2C(=O)C1c1ccccc1 [Phenindione]
  scaled lipid accumulation score: inactive: ≤ 0
[1]
  scaled lipid accumulation score: inactive: ≤ 0
Library stock concentration: 9 mM
  scaled lipid accumulation score: inactive: 0.014
[2]
  scaled lipid accumulation score: inactive: ≤ 0

## Clc1ccc2c(c1)C(N1CCNCC1)=Nc1ccccc1O2
[2]
  scaled lipid accumulation score: inactive: 0.843

## Clc1ccc2c(c1)C(N1CCNCC1)=Nc1ccccc1O2 [Amoxapine]
Library stock concentration: 6.4 mM
  scaled lipid accumulation score: inactive: 0.598

## Cc1cc(C=C2C(=O)C=CC2=O)cc(C)c1O
Library stock concentration: 80 uM
  scaled lipid accumulation score: inactive: ≤ -0.001
Library stock concentration: 400 uM
  scaled lipid accumulation score: inactive: ≤ -0.001
[3]
  scaled lipid accumulation score: inactive: 0.593
[1]
  scaled lipid accumulation score: inactive: 0.464

## O=C(O)CCc1nc(-c2ccccc2)c(-c2ccccc2)o1
[2]
  scaled lipid accumulation score: inactive: ≤ 0

## O=C(O)CCc1nc(-c2ccccc2)c(-c2ccccc2)o1 [Oxaprozin]
  scaled lipid accumulation score: inactive: ≤ 0
[1]
  scaled lipid accumulation score: inactive: ≤ 0
Library stock concentration: 6.8 mM
  scaled lipid accumulation score: inactive: ≤ 0
[2]
  scaled lipid accumulation score: inactive: ≤ -0.001 and inactive: 0.148 and inactive: 0.147

## CC1(C)CC(=O)c2c(ccc(C(=O)CC(N)CO)c2N)O1 (stereo not drawn)
[2]
  scaled lipid accumulation score: active: 1.03

## COc1c(C)cnc(Cn2cnc3c(Cl)nc(N)nc32)c1C
[1]
  scaled lipid accumulation score: active: 0.885

## CNC[C@@H](O)c1ccc(O)c(O)c1 [L-Adrenaline]
[1]
  scaled lipid accumulation score: inactive: 0.029
[2]
  scaled lipid accumulation score: inactive: ≤ 0

## Cc1ccc(N(CC2=NCCN2)c2cccc(O)c2)cc1 [Phentolamine hydrochloride]
  scaled lipid accumulation score: inactive: 0.051
Library stock concentration: 6.3 mM
  scaled lipid accumulation score: inactive: 0.079
[2]
  scaled lipid accumulation score: inactive: ≤ 0

## Cc1ccc(N(CC2=NCCN2)c2cccc(O)c2)cc1 [PhentolamineHCl]
Library stock concentration: 7.1 mM
  scaled lipid accumulation score: inactive: 0.024

## Cc1ccc(N(CC2=NCCN2)c2cccc(O)c2)cc1 [Phentolamine]
Library stock concentration: 17.8 mM
  scaled lipid accumulation score: inactive: 0.3

## Cc1ccc(N(CC2=NCCN2)c2cccc(O)c2)cc1 [Phentolamine mesylate]
[2]
  scaled lipid accumulation score: inactive: ≤ 0

## Cc1ccc(N(CC2=NCCN2)c2cccc(O)c2)cc1 [Phentolamine?Mono-hydrochloride]
[2]
  scaled lipid accumulation score: inactive: 0.482

## Cc1ccc(N(CC2=NCCN2)c2cccc(O)c2)cc1 [Phentolamine Mesylate]
[1]
  scaled lipid accumulation score: inactive: 0.03
[2]
  scaled lipid accumulation score: inactive: 0.159

## CN(C)C/C=C/C(=O)Nc1cc2c(Nc3ccc(F)c(Cl)c3)ncnc2cc1O[C@H]1CCOC1 [Afatinib  (TOVOK,  BIBW-2992) (2 mM)]
[3]
  scaled lipid accumulation score: active: 1.29

## CC(C)(C)c1ccc(/C=C/C(=O)Nc2ccc3c(c2)OCCO3)cc1
[2]
  scaled lipid accumulation score: inactive: 0.122 and inactive: 0.031

## Cc1n[nH]c2ccc(-c3cncc(OC[C@@H](N)Cc4ccccc4)c3)cc12
[1]
  scaled lipid accumulation score: active: 1.24

## Cc1[nH]c(/C=C2\C(=O)Nc3ccc(S(=O)(=O)N(C)c4cccc(Cl)c4)cc32)c(C)c1C(=O)N1CCN(C)CC1 [Met Kinase Inhibitor]
[1]
  scaled lipid accumulation score: active: 1.38

## O=C(O)c1ccccc1-c1c2cc(I)c(=O)c(I)c-2oc2c(I)c(O)c(I)cc12
[2]
  scaled lipid accumulation score: inactive: 0.008

## CCc1ccc(CCOc2ccc(CC3SC(=O)NC3=O)cc2)nc1 (stereo not drawn) [Pioglitazone HCl]
[1]
  scaled lipid accumulation score: inactive: ≤ 0
[2]
  scaled lipid accumulation score: inactive: ≤ 0

## CCc1ccc(CCOc2ccc(CC3SC(=O)NC3=O)cc2)nc1 (stereo not drawn) [Pioglitazone]
[1]
  scaled lipid accumulation score: inactive: ≤ 0
[2]
  scaled lipid accumulation score: inactive: ≤ 0

## CCc1ccc(CCOc2ccc(CC3SC(=O)NC3=O)cc2)nc1 (stereo not drawn)
[2]
  scaled lipid accumulation score: inactive: ≤ 0

## CCc1ccc(CCOc2ccc(CC3SC(=O)NC3=O)cc2)nc1 (stereo not drawn) [Pioglitazone hydrochloride]
Library stock concentration: 5.1 mM
  scaled lipid accumulation score: inactive: ≤ 0
[2]
  scaled lipid accumulation score: inactive: ≤ -0.027

## CC[n+]1c(/C=C/C=C2/N(C)c3ccccc3C2(C)C)sc2ccccc21
[2]
  scaled lipid accumulation score: inactive: 0.767

## Cc1c(Cl)cccc1Nc1ccccc1C(=O)O [Tolfenamic acid]
  scaled lipid accumulation score: inactive: ≤ 0
Library stock concentration: 7.6 mM
  scaled lipid accumulation score: inactive: ≤ 0
[2]
  scaled lipid accumulation score: inactive: ≤ 0

## Cc1c(Cl)cccc1Nc1ccccc1C(=O)O [Tolfenamic Acid]
[1]
  scaled lipid accumulation score: inactive: ≤ 0
[2]
  scaled lipid accumulation score: inactive: ≤ 0
